Assay results published in PubChem BioAssay AID1345082 (National Center for Advancing Translational Sciences (NCATS), 2018).
Out of some 94,000 compounds screened, about 4,000 (4.3%) were called active. The inconclusive results got no clear call from the source; some entries with a clear call stand among them for comparison. Calls come from the whole dose curve; as a rule, active = well fitted inhibition curve with a large enough effect; inconclusive = small, poorly fitted or top-dose-only effect; inactive = no such curve, though single readings can be large or run the other way. Potencies beside an inconclusive call are fits to weak or partial responses and may not hold up.

Assay: Cytotoxic Profiling in NIH 3T3 Cell Line of Diverse Libraries Using Quantitative High-Throughput Screening; note: nearly all actives have a fitted effect of over 55% in size
Conditions: NIH 3T3 viability, CellTiter-Glo ATP luminescence, 48-72 h; activity change, negative = cytotoxicity: at 96.7 µM (top of the series) unless noted; series mostly up to 96.7 µM
In short: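 NIH 3T3 cells at 400 cells/well received 23 nL of compound by pintool and were incubated 48 or 72 h at 37 °C. Viability was read as ATP-coupled CellTiter-Glo luminescence.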
% is set by controls: 0 for no effect and ±100 for the full control effect; potency is the fitted concentration of half-maximal effect; tags give direction and shape of the fitted curve.

| SMILES | Potency | activity change, negative = cytotoxicity | outcome |
| --- | --- | --- | --- |
| CC1(c2ccccc2)N(Cc2ccc(O)cc2)C(=O)OC12CCN(C(=O)C1CCC1)CC2 (stereo not drawn) | inconclusive: 3.16 µM [inhibitor, full curve, poor fit] |  |  |
| COc1cccc([S+](=O)([O-])NC2CCN(c3ccc4nnc(-c5ccccc5)n4n3)C2)c1 (stereo not drawn) | inconclusive: 50.1 µM [inhibitor, partial curve, poor fit] |  |  |
| O=C(NC1CCN(Cc2cccc(-c3cccs3)c2)CC1)c1ccccn1 | inconclusive: 50.1 µM [inhibitor, partial curve, poor fit] |  |  |
| O=C1c2cccnc2OC(COc2ccccc2)CN1Cc1cccs1 (stereo not drawn) | inconclusive: 35.5 µM [inhibitor, partial curve, poor fit] |  |  |
| CCC(=O)N1CCN(c2nc3c(s2)CC(C(=O)N2CCCCC2)CC3)CC1 (stereo not drawn) |  | inactive: -18.3% |  |
| CCc1nc(-c2c3n(c(=O)n(Cc4cccc(C#N)c4)c2=O)CCCCC3)no1 |  | inactive: -12.2% |  |
| O=C(N[C@H]1CCN2C(=O)c3cc(-c4ccccc4)ccc3NC(=O)[C@H]12)c1cccs1 |  | inactive: -16.7% [at 174 µM] |  |
| CN(Cc1cccc(C(F)(F)F)c1)C(=O)Nc1ccc(Cl)cc1 | active: 20 µM |  |  |
| CC(C)COc1cc(=O)n2c(c1C(=O)NCc1ccccc1F)CCCCC2 | inconclusive: 70.8 µM [inhibitor, single point] |  |  |
| Cc1c(Cn2cc(-c3cncnc3)nn2)oc2ccccc12 |  | inactive: 1.56% |  |
| CN(C)c1cccc(C(=O)N2CCn3nc(Cc4ccccc4)cc3C2)c1 | inconclusive: 31.6 µM [inhibitor, full curve, poor fit] |  |  |
| NC(=O)C1(N2CCCCC2)CCN(C(=O)c2cc3n(n2)CC(c2ccc(Cl)cc2)OC3)CC1 (stereo not drawn) | inconclusive: 50.1 µM [inhibitor, partial curve, poor fit] |  |  |
| COc1ccc(Cn2c(=O)c(C(=O)NCC(F)F)nc3cccnc32)cc1 |  | inactive: -4.32% |  |
| CCCCS(=O)(=O)N1CCC(F)(c2nc(-c3ccccc3)no2)CC1 |  | inactive: -0.24% |  |
| Cn1cc(-c2ccc(F)cc2)cc1C(=O)NCCCN1CCCCC1 | inconclusive: 50.1 µM [inhibitor, partial curve, poor fit] |  |  |
| O=[S+]([O-])(c1cccs1)N1CCc2nc(-c3ccccc3)nc(-c3ccc(Cl)cc3)c2C1 |  | inactive: -8.41% |  |
| COc1ccc(CN2CCNc3cc(-c4ccnc(C)c4)ncc3C2)cc1 | inconclusive: 56.2 µM [inhibitor, partial curve, poor fit] |  |  |
| O=C(Cc1c[nH]c2ncc(-c3ccccc3)cc12)Nc1ccc(C(F)(F)F)cc1 | inconclusive: 79.4 µM [inhibitor, partial curve, poor fit] |  |  |
| Cn1ncc2c(C(=O)NCC(F)F)cc(-c3ccc(Cl)nc3)nc21 | inconclusive: 39.8 µM [inhibitor, partial curve, poor fit] |  |  |
| COc1ccc(C(=O)N2CCOC[C@H](Oc3ccc(C(F)(F)F)cc3)C2)cc1 | inconclusive: 89.1 µM [inhibitor, single point] |  |  |
| COc1ccc(-c2ccnc(N[C@H]3CO[C@H]4[C@@H]3OC[C@H]4OCC(=O)N(C)C)n2)cc1 | inconclusive: 70.8 µM [inhibitor, partial curve] |  |  |

| SMILES | Potency | activity change, negative = cytotoxicity | outcome |
| --- | --- | --- | --- |
| O=C(NC1CCCN(c2cc(-c3ccccc3)[nH]n2)C1)c1cc(F)ccc1F (stereo not drawn) | inconclusive: 50.1 µM [inhibitor, partial curve, poor fit] |  |  |
| COCC1CN(C2CCC2)CC12CCN(C(=O)Cc1ccccc1OC)CC2 (stereo not drawn) | inconclusive: 70.8 µM [inhibitor, single point] |  |  |
| COc1ccccc1C(=O)NC[C@@H]1C=C(C)[C@H](CC(=O)N2CCCC2)C[C@H]1C(C)C | inconclusive: 100 µM [inhibitor, partial curve, poor fit] |  |  |
| COc1cccc(-c2ccc(C(=O)N3CCC(NC(=O)N(C)C)CC3)cc2)c1 | inconclusive: 50.1 µM [inhibitor, partial curve, poor fit] |  |  |
| COc1ccccc1C(=O)N1CC2(C1)NC(=O)c1ccccc1O2 |  | inactive: -15.8% [at 138 µM] |  |
| O=S(=O)(c1cc(F)ccc1F)N1CCC(n2cc(CCCO)nn2)CC1 | inconclusive: 89.1 µM [inhibitor, single point] |  |  |
| Fc1ccc(OCc2nc(C3CCNC3)no2)cc1 (stereo not drawn) |  | inactive: -6.05% |  |
| Cc1cn2nc(C(=O)NCC(C)c3ccccc3)cc2c(N2CCCC2)n1 (stereo not drawn) | inconclusive: 50.1 µM [inhibitor, partial curve, poor fit] |  |  |
| O=C(NCc1nnc2cc(-c3nc(C4CC4)no3)ccn12)c1cccc(Cl)c1 | inconclusive: 63.1 µM [inhibitor, single point] |  |  |
| Fc1ccc(CN2CC[C@H](c3nc4ccccc4s3)C2)cc1F | inconclusive: 126 µM [inhibitor, single point] |  |  |
| COC1CCOC2(CCN(C(=O)Cn3c(=O)oc4ccccc43)CC2)C1 (stereo not drawn) |  | inactive: -0.954% |  |
| O=[S+]1([O-])NCC2(CCCN(Cc3ccc(C(F)(F)F)cc3)C2)Nc2ccccc21 (stereo not drawn) | inconclusive: 44.7 µM [inhibitor, partial curve, poor fit] |  |  |
| COc1ccc(-c2noc(-c3cccn3CC(=O)NCCc3ccccc3)n2)cc1F |  | inactive: -7.31% |  |
| c1ccc(CN(Cc2ccccn2)[C@@H]2C[C@@H]3CO[C@H](c4ccccc4)C[C@@H]3C2)cc1 | inconclusive: 44.7 µM [inhibitor, partial curve, poor fit] |  |  |
| Cc1ccc(-c2cn3c(n2)N(C(=O)c2cnn4cccnc24)CCC3)cc1 |  |  | inactive |
| O=C(c1ccn[nH]1)N1C[C@@H](COCC2CC2)[C@H](c2ccncc2)C1 |  | inactive: -4.75% |  |
| O=C(N[C@@H](CO)c1ccccc1)c1cc(COc2cccc(F)c2)[nH]n1 | inconclusive: 39.8 µM [inhibitor, partial curve, poor fit] |  |  |
| O=C(NCc1ccc(Cl)cc1)[C@@H]1Cc2nc[nH]c2CN1Cc1cccs1 | inconclusive: 89.1 µM [inhibitor, partial curve] |  |  |
| O=C(c1cc(F)ccc1Cl)N1CCC(n2cc(-c3nc(-c4ccccc4)no3)nn2)C1 (stereo not drawn) | inconclusive: 5.01 µM [inhibitor, full curve, poor fit] |  |  |
| COc1ccccc1Cc1nc(-c2nnn3c2COC(c2ccc(Cl)cc2)C3)no1 (stereo not drawn) | inconclusive: 28.2 µM [inhibitor, full curve] |  |  |
| O=C(C1CC(=O)N(c2n[nH]c3ccccc23)C1)N1CCN(CCc2ccncc2)CC1 (stereo not drawn) |  | inactive: -10.1% |  |

| SMILES | Potency | activity change, negative = cytotoxicity | outcome |
| --- | --- | --- | --- |
| COc1ccc(C(=O)N2CCC3(CC2)NC(=O)N(c2ccc(F)cc2)N3)cc1 | inconclusive: 35.5 µM [inhibitor, partial curve] |  |  |
| O=C(C1CC1)N1CCC(Cc2nc(C3CCOCC3)no2)CC1 |  | inactive: -7.39% |  |
| O=C(NCCOc1ccccc1)[C@@H]1C[C@H](c2ccc(F)cc2)N([S+](=O)([O-])C2CC2)C1 | inconclusive: 63.1 µM [inhibitor, partial curve, poor fit] |  |  |
| CN(C)C(=O)N1CCN(c2ccc3nnc(-c4ccccc4)n3n2)CC1 | inconclusive: 70.8 µM [inhibitor, single point] |  |  |
| Cc1cc(C(=O)N2CCc3nn(Cc4ccccc4)c(=O)n3CC2)nn1C |  | inactive: -11.1% |  |
| COC(=O)c1cccc(NC(=S)N[C@@H]2C=C[C@@H](c3c(C)nn(-c4ccc(C(C)C)cc4)c3C)C2)c1 | inconclusive: 20 µM [inhibitor, full curve, poor fit] |  |  |
| COc1ccc(C(=O)N2CCC(c3nc(-c4cccn4C)no3)CC2)c(OC)c1 | inconclusive: 44.7 µM [inhibitor, partial curve, poor fit] |  |  |
| Cc1nc2ccc(CNC(=O)c3cccc(CCC(C)(C)O)c3)cc2[nH]1 | inconclusive: 44.7 µM [inhibitor, partial curve] |  |  |
| O=C(c1n[nH]c2ccccc12)N1CCC(OCCOc2ccc(F)cc2)CC1 | inconclusive: 44.7 µM [inhibitor, partial curve, poor fit] |  |  |
| CC(C)CNC(=O)c1cc(-c2ccsc2)nc2c1cnn2C | inconclusive: 56.2 µM [inhibitor, partial curve, poor fit] |  |  |
| CCS(=O)(=O)NCc1nc(-c2ccc(C)cc2)c(-c2ccccn2)[nH]1 | inconclusive: 44.7 µM [inhibitor, partial curve, poor fit] |  |  |
| FC(F)(F)C1CN(c2ccnc3ccc(Cl)cc23)CCO1 (stereo not drawn) | inconclusive: 56.2 µM [inhibitor, partial curve, poor fit] |  |  |
| COc1ccc(-c2ccc(C(=O)NCC3CC3)c(Cl)c2)nn1 |  | inactive: -20.9% [at 138 µM] |  |
| Cc1cc(C)c(S(=O)(=O)NCCn2c(C)cnc2C2CC2)c(C)c1 | inconclusive: 39.8 µM [inhibitor, partial curve, poor fit] |  |  |
| C#CCNC(=O)c1nc2sccn2c1-c1ccc(C(F)(F)F)cc1 | inconclusive: 56.2 µM [inhibitor, partial curve, poor fit] |  |  |
| CCOC(=O)[C@H]1C[C@]2(CCCCN(CCO)C2=O)N(C(=O)CC2CCCC2)[C@H]1c1ccco1 | inconclusive: 50.1 µM [inhibitor, single point] |  |  |
| Cc1ccccc1N1Cc2c(NCC(C)C)ncnc2N(C)CC1=O |  | inactive: -1.61% |  |
| O=S(=O)(Cc1ccccc1)NC[C@H]1COCc2nc3ccccc3n21 | inconclusive: 31.6 µM [inhibitor, partial curve, poor fit] |  |  |
| COc1ccc(CNC(=O)c2ccc(Cn3ccn4nc5c(c4c3=O)CCCC5)cc2)cc1 | inconclusive: 20 µM [inhibitor, full curve] |  |  |
| CO[C@H]1C(=O)N(C2CCN(C(=O)COc3ccccc3)CC2)[C@H]1c1ccncc1 |  | inactive: -18% |  |
| Cc1ccc(NC(=O)CC2CCCCN(Cc3ccccc3)C2=O)cc1 (stereo not drawn) | inconclusive: 44.7 µM [inhibitor, partial curve, poor fit] |  |  |
